Some of the results follow. These are noisy estimates, calculated here from bound and input reads.
molecular target: T1, Pho4 (S. cerevisiae) (UniProt P07270); test: relative binding free energy (BET-seq); higher = weaker binding; conditions: reference: library average
T1 sequence: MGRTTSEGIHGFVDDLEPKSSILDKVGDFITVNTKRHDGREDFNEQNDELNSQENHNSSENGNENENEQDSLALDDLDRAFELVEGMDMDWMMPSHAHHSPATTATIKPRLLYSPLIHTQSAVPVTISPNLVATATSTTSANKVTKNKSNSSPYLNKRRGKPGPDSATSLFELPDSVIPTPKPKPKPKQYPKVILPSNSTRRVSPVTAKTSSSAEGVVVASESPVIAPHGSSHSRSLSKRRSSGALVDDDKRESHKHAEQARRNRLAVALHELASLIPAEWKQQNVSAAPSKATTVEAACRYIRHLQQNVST

| Sequence | relative binding free energy |
| --- | --- |
| TAGAGCACGTGCGTGG | -0.46 kJ/mol |
| AATGTCACGTGCTGGA | 0.502 kJ/mol |
| ATGGGCACGTGTGCAA | -0.753 kJ/mol |
| GAGGGCACGTGGTGCG | -0.502 kJ/mol |
| GTCGGCACGTGGGGCG | -0.586 kJ/mol |
| AGAGGCACGTGTTGGC | -0.46 kJ/mol |
| TATTGCACGTGGGGCG | -0.418 kJ/mol |
| AAGTTCACGTGGATCG | 1.17 kJ/mol |
| GTAGTCACGTGCTGTA | -0.0837 kJ/mol |
| GGGTTCACGTGCGTGA | 1.42 kJ/mol |
| TCTTTCACGTGTGTTA | 1.21 kJ/mol |
| GAAGCCACGTGTGGGG | 0.126 kJ/mol |
| TGTGCCACGTGCGTTG | -0.544 kJ/mol |
| AGAGTCACGTGTAGGC | 0.418 kJ/mol |
| AGATACACGTGTGTTG | 0.418 kJ/mol |
| TCAGTCACGTGATTTA | 0.795 kJ/mol |
| GTTAACACGTGTGAAT | 0.126 kJ/mol |
| GAGTTCACGTGAAGGC | 2.22 kJ/mol |
| AGTCGCACGTGGTGGT | -0.711 kJ/mol |
| GAGGGCACGTGTCGGC | -0.418 kJ/mol |
| TTTTTCACGTGTAGGT | 0.879 kJ/mol |
| TCAGGCACGTGTGATT | 0.126 kJ/mol |
| GTAATCACGTGGGTGG | 0.293 kJ/mol |

| Sequence | relative binding free energy |
| --- | --- |
| AGTTTCACGTGGGTCG | 0.753 kJ/mol |
| AAGGCCACGTGGTTTT | -0.502 kJ/mol |
| TCTAGCACGTGGTGTA | -0.502 kJ/mol |
| TTTTACACGTGCTGTT | 0 kJ/mol |
| TGAGTCACGTGGTGCG | -0.209 kJ/mol |
| AATATCACGTGGTTTT | 0.544 kJ/mol |
| TCGGTCACGTGGGGGA | -0.0837 kJ/mol |
| CAAGGCACGTGTAAGT | 0.209 kJ/mol |
| ATCGGCACGTGCGTGT | -1.09 kJ/mol |
| AGGTGCACGTGAAGAT | 0.418 kJ/mol |
| CGTGTCACGTGTGGCT | 0.544 kJ/mol |
| GTGTTCACGTGTGTCG | 1.42 kJ/mol |
| GTAGGCACGTGCTGTA | -0.669 kJ/mol |
| TTGAGCACGTGCGGAG | -0.711 kJ/mol |
| ATGGGCACGTGGCATT | -1.09 kJ/mol |
| ATGTTCACGTGACAGG | 1 kJ/mol |
| TTTATCACGTGACTTT | 1.05 kJ/mol |
| AAGATCACGTGTGGTG | 0.628 kJ/mol |
| ATGTTCACGTGGTTAG | 0.795 kJ/mol |
| AGGGCCACGTGGTTTA | -0.586 kJ/mol |
| TTCGGCACGTGGCCGG | -0.377 kJ/mol |
| GAGTGCACGTGTGGGT | 0.669 kJ/mol |
| GACGGCACGTGGAGGT | 0.251 kJ/mol |

| Sequence | relative binding free energy |
| --- | --- |
| ATGGACACGTGTGGAA | 0.669 kJ/mol |
| GCTGGCACGTGAAGTG | 0.46 kJ/mol |
| GTGTACACGTGAGCTG | 0.92 kJ/mol |
| AATTGCACGTGAAGTT | 0.544 kJ/mol |
| AATATCACGTGGCGGT | 0.293 kJ/mol |
| AGTGACACGTGGTTTT | 0.46 kJ/mol |
| ATATTCACGTGGCGCG | 1.13 kJ/mol |
| ATGTACACGTGTGGGA | 0.502 kJ/mol |
| GTGGGCACGTGTTAGC | -0.126 kJ/mol |
| CTTATCACGTGAGTTA | 1.42 kJ/mol |
| AGTGGCACGTGATCAG | -0.502 kJ/mol |
| TACATCACGTGTGTAG | 0.795 kJ/mol |
| TTAGGCACGTGAAAGT | 0.0837 kJ/mol |
| TGCATCACGTGGGGGC | 0.209 kJ/mol |
| GGAGGCACGTGTGCGC | -0.377 kJ/mol |
| TTGCACACGTGAGGTA | 0.795 kJ/mol |
| TTGTGCACGTGAAAAT | 1.09 kJ/mol |
| TATAGCACGTGTGTTC | -0.167 kJ/mol |
| TGAAGCACGTGAGATT | 1.17 kJ/mol |
| GATGTCACGTGTAATA | 1.26 kJ/mol |
| TTTTACACGTGATAAG | 0.795 kJ/mol |
| AATTTCACGTGATTCT | 1.21 kJ/mol |
| TTTGTCACGTGGGCAA | -0.126 kJ/mol |

| Sequence | relative binding free energy |
| --- | --- |
| ATGCTCACGTGGGTGC | 0.0837 kJ/mol |
| TAAGACACGTGGGTTA | -0.167 kJ/mol |
| TTTTTCACGTGATTAT | 1.72 kJ/mol |
| GTCATCACGTGTATTT | 0.586 kJ/mol |
| ATGTGCACGTGGTGCT | -0.377 kJ/mol |
| TAGGTCACGTGTGTCT | 0.502 kJ/mol |
| ATCGGCACGTGTAGTG | -0.251 kJ/mol |
| GTTCTCACGTGGAGGA | 1.63 kJ/mol |
| TGCGACACGTGGGTAG | -0.418 kJ/mol |
| CGTGTCACGTGGCGGT | -0.293 kJ/mol |
| TAGGCCACGTGGTTTT | -0.335 kJ/mol |
| TTGTCCACGTGTAGGC | 0.711 kJ/mol |
| GTCGTCACGTGGAATG | 0.753 kJ/mol |
| GAGGACACGTGTGGCT | 0.711 kJ/mol |
| CGGGGCACGTGGAATT | 0.0837 kJ/mol |
| CGTAACACGTGCGTGT | -0.418 kJ/mol |
| AATTTCACGTGTGGGT | 1.21 kJ/mol |
| TAGGACACGTGAGTGC | 0.962 kJ/mol |
| TTAAACACGTGTGAGT | 0.544 kJ/mol |
| TTTTGCACGTGTCGGG | 0.418 kJ/mol |
| GACTGCACGTGGGGGC | -0.377 kJ/mol |
| CTGGGCACGTGGAGTG | -1.09 kJ/mol |
| AGTTTCACGTGACTGA | 1.38 kJ/mol |

| Sequence | relative binding free energy |
| --- | --- |
| TCGTACACGTGGGGTT | -0.209 kJ/mol |
| TTTATCACGTGAGGCG | 1.42 kJ/mol |
| GGGATCACGTGCTGGA | 0.46 kJ/mol |
| TCGGGCACGTGGCTAA | -0.0418 kJ/mol |
| TTTGTCACGTGCGGTA | 0.335 kJ/mol |
| TGACGCACGTGGTGCT | -0.837 kJ/mol |
| TGAGGCACGTGTTTCT | -0.837 kJ/mol |
| CTTGACACGTGTAGGT | 0.293 kJ/mol |
| TCGGTCACGTGTAGTT | 0.293 kJ/mol |
| GCAGGCACGTGGTAGT | -0.962 kJ/mol |
| TGATACACGTGAGTTG | 0.962 kJ/mol |
| CTGTGCACGTGTGGTT | 0.46 kJ/mol |
| TTTGGCACGTGGGCAG | -0.962 kJ/mol |
| GGGTTCACGTGAGCTA | 1.34 kJ/mol |
| GGTCACACGTGCGGTT | 0.209 kJ/mol |
| GTATCCACGTGGTTGT | -0.167 kJ/mol |
| CAAGTCACGTGGTTGT | 0.293 kJ/mol |
| GTTAGCACGTGTAGTG | -0.293 kJ/mol |
| TCTTACACGTGCGTTT | 0.628 kJ/mol |
| TATGGCACGTGGTTAT | -0.795 kJ/mol |
| TATCTCACGTGTTGCG | 1.21 kJ/mol |
| ATAAGCACGTGTGTGT | 0.126 kJ/mol |
| CTCTTCACGTGTTGTG | 0.628 kJ/mol |
